For 84 variants, enrichment ratio results are on record in a collection of fitness landscapes (doi:10.1126/science.1257360).

The labels stand for the following.
B1: PhoQ; a variant is named by its letters at X, in order, P23837 (parent)
chain: MKKLLRLFFPLSLRVRFLLATAAVVLVLSLAYGMVALIGYSVSFDKTTFRLLRGESNLFYTLAKWENNKLHVELPENIDKQSPTMTLIYDENGQLLWAQRDVPWLMKMIQPDWLKSNGFHEIEADVNDTSLLLSGDHSIQQQLQEVREDDDDAEMTHSVAVNVYPATSRMPKLTIVVVDTIPVELKSSYMVWSWFIYVLSANLLLVIPLLWVAAWWSLRPIEALAKEVRELEEHNRELLNPATTRELTSLVRNLNRLLKSERERYDKYRTTLTDLTHSLKTPLXXLQXXLRSLRSEKMSVSDAEPVMLEQISRISQQIGYYLHRASMRGGTLLSRELHPVAPLLDNLTSALNKVYQRKGVNISLDISPEISFVGEQNDFVEVMGNVLDNACKYCLEFVEISARQTDEHLYIVVEDDGPGIPLSKREVIFDRGQRVDTLRPGQGVGLAVAREITEQYEGKIVAGESMLGGARMEVIFGRQHSAPKDE

The list shows a part of the results.

In this assay the parent is B1. The experiment in a line: enrichment ratio after two sorts for PhoP signalling (ratio (wild type AVST 3.29)); higher = more functional. Particulars: with PhoP (E. coli).
Turning to RDYI, the enrichment ratio was no more than 0.25.

Consider YVAL, for which the enrichment ratio is 0.298.

As for NCVF, the enrichment ratio was no more than 0.25.

For the variant VEGL, the enrichment ratio is no more than 0.25.

With QILN, the enrichment ratio was no more than 0.25.

Regarding FYWD, the enrichment ratio is no more than 0.25.

For the variant MMAH, the enrichment ratio turned out to be 7.42.

In the case of MAAP, the enrichment ratio is no more than 0.25.

Take GDKS: the enrichment ratio is no more than 0.25.

On to YSCK, for which the enrichment ratio was no more than 0.25.

As to VDFD, the enrichment ratio is no more than 0.25.

AMIW: the enrichment ratio is no more than 0.25.

As for KHFA, the enrichment ratio is no more than 0.25.

As to VEEH, the enrichment ratio is no more than 0.25.

Regarding HAGA, the enrichment ratio was no more than 0.25.

As to PTHC, the enrichment ratio was no more than 0.25.

Regarding YTEN, the enrichment ratio was no more than 0.25.

In the case of AAGH, the enrichment ratio was no more than 0.25.

As to WYLV, the enrichment ratio was no more than 0.25.

As for WKRF, the enrichment ratio is no more than 0.25.

Consider PKWN, for which the enrichment ratio was no more than 0.25.

Turning to QDAQ, the enrichment ratio was no more than 0.25.

EHMG: the enrichment ratio is no more than 0.25.

For the variant GQGV, the enrichment ratio is no more than 0.25.

For the variant VHGE, the enrichment ratio is no more than 0.25.

With TCGY, the enrichment ratio worked out at 20.3.

Turning to YPNK, the enrichment ratio is no more than 0.25.

Take ATPR: the enrichment ratio is no more than 0.25.

As for TDML, the enrichment ratio stood at 5.55.

Consider YYYQ, for which the enrichment ratio is no more than 0.25.

Regarding HNQV, the enrichment ratio was no more than 0.25.

In the case of MWFP, the enrichment ratio is no more than 0.25.

Consider TEDN, for which the enrichment ratio was no more than 0.25.

In the case of TNFM, the enrichment ratio is no more than 0.25.

For the variant KKNA, the enrichment ratio is no more than 0.25.

For VRKN, the enrichment ratio is no more than 0.25.

In the case of PLCD, the enrichment ratio was no more than 0.25.

On to GQSM, for which the enrichment ratio was 20.5.

With YRLH, the enrichment ratio was no more than 0.25.

MHMM: the enrichment ratio was no more than 0.25.

Take QRPK: the enrichment ratio was no more than 0.25.

Take NPQR: the enrichment ratio was no more than 0.25.

In the case of SYVK, the enrichment ratio was no more than 0.25.

As for HGGP, the enrichment ratio was no more than 0.25.

As for MYDM, the enrichment ratio is no more than 0.25.

On to WKFC, for which the enrichment ratio is no more than 0.25.

For the variant DGWR, the enrichment ratio was no more than 0.25.

On to TVAG, for which the enrichment ratio stood at 17.8.

In the case of NMMM, the enrichment ratio was no more than 0.25.

GPAM: the enrichment ratio was no more than 0.25.

On to LWDL, for which the enrichment ratio was no more than 0.25.

For AGSK, the enrichment ratio came to 0.857.

For the variant TYPI, the enrichment ratio was no more than 0.25.

With EFAR, the enrichment ratio was no more than 0.25.

EHGL: the enrichment ratio is no more than 0.25.

PWFL: the enrichment ratio was no more than 0.25.

In the case of YQCM, the enrichment ratio worked out at 3.42.

As for LAIL, the enrichment ratio was no more than 0.25.

Turning to PNKD, the enrichment ratio is no more than 0.25.

With HGHR, the enrichment ratio was no more than 0.25.

MHLA: the enrichment ratio is no more than 0.25.

With GKMA, the enrichment ratio is no more than 0.25.

In the case of QVSM, the enrichment ratio was determined as 6.39.

For VTAN, the enrichment ratio was no more than 0.25.

In the case of DQVC, the enrichment ratio is no more than 0.25.

Turning to RRMF, the enrichment ratio was no more than 0.25.

Consider DAIK, for which the enrichment ratio is no more than 0.25.

Regarding YGFF, the enrichment ratio is no more than 0.25.

For the variant HTIK, the enrichment ratio is no more than 0.25.

For the variant FCSM, the enrichment ratio amounted to 0.747.

PWMV: the enrichment ratio was no more than 0.25.

Take EKNA: the enrichment ratio is no more than 0.25.

On to STPM, for which the enrichment ratio was determined as 15.9.

Consider QHKT, for which the enrichment ratio was no more than 0.25.

As for PICC, the enrichment ratio is no more than 0.25.

As for YWCW, the enrichment ratio is no more than 0.25.

Turning to FVND, the enrichment ratio is no more than 0.25.

For PWHN, the enrichment ratio was no more than 0.25.

Turning to HVSY, the enrichment ratio is no more than 0.25.

Turning to LVIR, the enrichment ratio was no more than 0.25.

With RIPR, the enrichment ratio is no more than 0.25.

As to ICVQ, the enrichment ratio was no more than 0.25.

With GFHQ, the enrichment ratio was no more than 0.25.

For the variant YWAS, the enrichment ratio is no more than 0.25.
